The list shows a part of the results.

This assay addresses T1, MBP-FoxP1dN (Mus musculus, UniProt P58462 326-579).
T1 sequence: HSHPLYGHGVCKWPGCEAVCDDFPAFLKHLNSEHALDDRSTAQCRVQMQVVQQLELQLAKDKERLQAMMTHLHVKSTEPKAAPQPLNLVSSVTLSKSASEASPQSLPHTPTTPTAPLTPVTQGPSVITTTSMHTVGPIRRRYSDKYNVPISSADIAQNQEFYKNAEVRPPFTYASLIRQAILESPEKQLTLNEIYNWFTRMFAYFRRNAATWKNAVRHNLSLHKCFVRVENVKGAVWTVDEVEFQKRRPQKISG
Put plainly: PD-seq (MBP pull-down with sequencing); 20 mM Tris-HCl pH 7.5, 100 mM NaCl, 1.5 mM MgCl2, 0.4 uM protein, 0.1 uM dsDNA library, 30 min, room temperature, amylose pull-down; high values mean tight binding. The note with it: protein: recombinant; tags: His6-MBP; chain copies: 2; dsDNA, one strand shown. The method in brief: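 E. coli-expressed mouse FoxP3 or FoxP1 fragment, N-terminus removed and tagged with His6-MBP, was used at 0.4 µM against 0.1 µM of a Klenow-filled degenerate double-stranded DNA library. After 30 min at room temperature in Tris pH 7.5 buffer with NaCl and MgCl2, complexes were pulled down on amylose resin and washed three times. Binding is pull-down over input reads-per-million enrichment from pooled replicates of the proteinase K-released, PCR-barcoded, Illumina-sequenced DNA.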
As for “GATGATTGTTCTCCCAGCTGATGAATTATTAAGCTCGAGTAAACAAATTTTCCTAATCTTTCTGTTCAAGCGCCATCTAC”, the binding signal was 1.04 RPM ratio (pull-down/input).

For “GATGATTGTTCTCCCAGCTGATGAATTAACCAGTTCGAGTAAACAAATTTTCCTAATCTTTCTGTTCAAGCGCCATCTAC”, the binding signal was 0.785 RPM ratio (pull-down/input).

With “GATGATTGTTCTCCCAGCTGATGAATTGGGCAGCTCGAGTAAACAAATTTTCCTAATCTTTCTGTTCAAGCGCCATCTAC”, the binding signal is 0.792 RPM ratio (pull-down/input).

“GATGATTGTTCTCCCAGCTGATGAATTTCGAAAGTCGAGTAAACAAATTTTCCTAATCTTTCTGTTCAAGCGCCATCTAC”: the binding signal is 0.883 RPM ratio (pull-down/input).

As for “GATGATTGTTCTCCCAGCTGATGAATTCCTACTATCGAGTAAACAAATTTTCCTAATCTTTCTGTTCAAGCGCCATCTAC”, the binding signal was 0.879 RPM ratio (pull-down/input).

“GATGATTGTTCTCCCAGCTGATGAATTTTTGCTTTCGAGTAAACAAATTTTCCTAATCTTTCTGTTCAAGCGCCATCTAC”: the binding signal was 1.83 RPM ratio (pull-down/input).

As for “GATGATTGTTCTCCCAGCTGATGAATTTATGATCTCGAGTAAACAAATTTTCCTAATCTTTCTGTTCAAGCGCCATCTAC”, the binding signal was 1.06 RPM ratio (pull-down/input).

With “GATGATTGTTCTCCCAGCTGATGAATTAGCGTCTTCGAGTAAACAAATTTTCCTAATCTTTCTGTTCAAGCGCCATCTAC”, the binding signal is 1.01 RPM ratio (pull-down/input).

Consider “GATGATTGTTCTCCCAGCTGATGAATTTCGCTCTTCGAGTAAACAAATTTTCCTAATCTTTCTGTTCAAGCGCCATCTAC”, for which the binding signal was 0.79 RPM ratio (pull-down/input).

Regarding “GATGATTGTTCTCCCAGCTGATGAATTCTCCTACTCGAGTAAACAAATTTTCCTAATCTTTCTGTTCAAGCGCCATCTAC”, the binding signal was 0.814 RPM ratio (pull-down/input).

On to “GATGATTGTTCTCCCAGCTGATGAATTGGCGAGATCGAGTAAACAAATTTTCCTAATCTTTCTGTTCAAGCGCCATCTAC”, for which the binding signal was 0.825 RPM ratio (pull-down/input).

For the sequence “GATGATTGTTCTCCCAGCTGATGAATTCGTCCCGTCGAGTAAACAAATTTTCCTAATCTTTCTGTTCAAGCGCCATCTAC”, the binding signal is 0.814 RPM ratio (pull-down/input).

As to “GATGATTGTTCTCCCAGCTGATGAATTCGTTAGATCGAGTAAACAAATTTTCCTAATCTTTCTGTTCAAGCGCCATCTAC”, the binding signal is 0.907 RPM ratio (pull-down/input).

“GATGATTGTTCTCCCAGCTGATGAATTCTCGTTCTCGAGTAAACAAATTTTCCTAATCTTTCTGTTCAAGCGCCATCTAC”: the binding signal is 0.882 RPM ratio (pull-down/input).

Turning to “GATGATTGTTCTCCCAGCTGATGAATTATTCGGATCGAGTAAACAAATTTTCCTAATCTTTCTGTTCAAGCGCCATCTAC”, the binding signal was 0.941 RPM ratio (pull-down/input).

As to “GATGATTGTTCTCCCAGCTGATGAATTATGAGTGTCGAGTAAACAAATTTTCCTAATCTTTCTGTTCAAGCGCCATCTAC”, the binding signal is 1 RPM ratio (pull-down/input).

“GATGATTGTTCTCCCAGCTGATGAATTGGCCGGTTCGAGTAAACAAATTTTCCTAATCTTTCTGTTCAAGCGCCATCTAC”: the binding signal is 0.774 RPM ratio (pull-down/input).

On to “GATGATTGTTCTCCCAGCTGATGAATTTCAACAATCGAGTAAACAAATTTTCCTAATCTTTCTGTTCAAGCGCCATCTAC”, for which the binding signal was 1.36 RPM ratio (pull-down/input).

With “GATGATTGTTCTCCCAGCTGATGAATTTGTCGATTCGAGTAAACAAATTTTCCTAATCTTTCTGTTCAAGCGCCATCTAC”, the binding signal is 1.02 RPM ratio (pull-down/input).

Turning to “GATGATTGTTCTCCCAGCTGATGAATTGATTCTGTCGAGTAAACAAATTTTCCTAATCTTTCTGTTCAAGCGCCATCTAC”, the binding signal is 1.04 RPM ratio (pull-down/input).

Take “GATGATTGTTCTCCCAGCTGATGAATTTCCATCATCGAGTAAACAAATTTTCCTAATCTTTCTGTTCAAGCGCCATCTAC”: the binding signal was 0.964 RPM ratio (pull-down/input).

For the sequence “GATGATTGTTCTCCCAGCTGATGAATTCGTACTATCGAGTAAACAAATTTTCCTAATCTTTCTGTTCAAGCGCCATCTAC”, the binding signal is 0.985 RPM ratio (pull-down/input).

For “GATGATTGTTCTCCCAGCTGATGAATTCTCCCGGTCGAGTAAACAAATTTTCCTAATCTTTCTGTTCAAGCGCCATCTAC”, the binding signal is 0.773 RPM ratio (pull-down/input).

With “GATGATTGTTCTCCCAGCTGATGAATTAAAATACTCGAGTAAACAAATTTTCCTAATCTTTCTGTTCAAGCGCCATCTAC”, the binding signal is 1.11 RPM ratio (pull-down/input).

For “GATGATTGTTCTCCCAGCTGATGAATTCGCTAATTCGAGTAAACAAATTTTCCTAATCTTTCTGTTCAAGCGCCATCTAC”, the binding signal was 0.905 RPM ratio (pull-down/input).

Take “GATGATTGTTCTCCCAGCTGATGAATTGTACTGGTCGAGTAAACAAATTTTCCTAATCTTTCTGTTCAAGCGCCATCTAC”: the binding signal was 0.846 RPM ratio (pull-down/input).

“GATGATTGTTCTCCCAGCTGATGAATTTGTTGCCTCGAGTAAACAAATTTTCCTAATCTTTCTGTTCAAGCGCCATCTAC”: the binding signal was 1.55 RPM ratio (pull-down/input).

As to “GATGATTGTTCTCCCAGCTGATGAATTATTATGTTCGAGTAAACAAATTTTCCTAATCTTTCTGTTCAAGCGCCATCTAC”, the binding signal was 1.69 RPM ratio (pull-down/input).

Take “GATGATTGTTCTCCCAGCTGATGAATTTCTGTTCTCGAGTAAACAAATTTTCCTAATCTTTCTGTTCAAGCGCCATCTAC”: the binding signal was 0.903 RPM ratio (pull-down/input).

For the sequence “GATGATTGTTCTCCCAGCTGATGAATTGTATATCTCGAGTAAACAAATTTTCCTAATCTTTCTGTTCAAGCGCCATCTAC”, the binding signal is 1.36 RPM ratio (pull-down/input).

As for “GATGATTGTTCTCCCAGCTGATGAATTCAGGTTATCGAGTAAACAAATTTTCCTAATCTTTCTGTTCAAGCGCCATCTAC”, the binding signal was 0.998 RPM ratio (pull-down/input).

On to “GATGATTGTTCTCCCAGCTGATGAATTCATCTACTCGAGTAAACAAATTTTCCTAATCTTTCTGTTCAAGCGCCATCTAC”, for which the binding signal was 0.93 RPM ratio (pull-down/input).

As to “GATGATTGTTCTCCCAGCTGATGAATTGCAACAATCGAGTAAACAAATTTTCCTAATCTTTCTGTTCAAGCGCCATCTAC”, the binding signal was 1.91 RPM ratio (pull-down/input).

As for “GATGATTGTTCTCCCAGCTGATGAATTACCCTCGTCGAGTAAACAAATTTTCCTAATCTTTCTGTTCAAGCGCCATCTAC”, the binding signal is 0.871 RPM ratio (pull-down/input).

Regarding “GATGATTGTTCTCCCAGCTGATGAATTCTCGTCATCGAGTAAACAAATTTTCCTAATCTTTCTGTTCAAGCGCCATCTAC”, the binding signal was 0.998 RPM ratio (pull-down/input).

For the sequence “GATGATTGTTCTCCCAGCTGATGAATTTGTCCAATCGAGTAAACAAATTTTCCTAATCTTTCTGTTCAAGCGCCATCTAC”, the binding signal is 1.2 RPM ratio (pull-down/input).

“GATGATTGTTCTCCCAGCTGATGAATTTGCCGGATCGAGTAAACAAATTTTCCTAATCTTTCTGTTCAAGCGCCATCTAC”: the binding signal was 0.839 RPM ratio (pull-down/input).

With “GATGATTGTTCTCCCAGCTGATGAATTTATTTTTTCGAGTAAACAAATTTTCCTAATCTTTCTGTTCAAGCGCCATCTAC”, the binding signal is 1.41 RPM ratio (pull-down/input).

Take “GATGATTGTTCTCCCAGCTGATGAATTGGGCGCTTCGAGTAAACAAATTTTCCTAATCTTTCTGTTCAAGCGCCATCTAC”: the binding signal is 0.892 RPM ratio (pull-down/input).

On to “GATGATTGTTCTCCCAGCTGATGAATTAACCTCCTCGAGTAAACAAATTTTCCTAATCTTTCTGTTCAAGCGCCATCTAC”, for which the binding signal is 0.811 RPM ratio (pull-down/input).

(Values after paper PMC12820563, “FoxP3 forms a head-to-head dimer in vivo and stabilizes its multimerization on adjacent microsatellites”.)
